Assay results reported in PubChem BioAssay AID602310 (National Center for Advancing Translational Sciences (NCATS), 2012).
The campaign covered roughly 410,000 compounds. About 310 (0.076%) were called active. Inconclusive means that the source gave no clear call. Such entries were picked first, then a sample of the others. The call rests on the fitted dose curve; in most records, active means well fitted curve in the direction sought with a large enough effect; inconclusive means small, poorly fitted or top-dose-only effect; inactive means flat fitted curve, though single readings scatter. Potencies of inconclusive entries are doubtful fits and often do not repeat.
Further: nearly all actives have a fitted effect of over 60% in size.
Potency means the concentration at half of the fitted maximal effect; tags describe the fitted curve by direction and shape.

What follows are compounds tested against DNA dC->dU-editing enzyme APOBEC-3G (Homo sapiens) (UniProt Q9HC16) (assay: qHTS for Inhibitors of Vif-A3G Interactions: qHTS). Conditions: HeLa A3G-eYFP + Vif (tagged APOBEC3G with the HIV-1 protein that degrades it), YFP fluorescence, overnight; series mostly up to 46.1 µM.
Chain of UniProt Q9HC16 (Q9HC16 whole entry, looked up): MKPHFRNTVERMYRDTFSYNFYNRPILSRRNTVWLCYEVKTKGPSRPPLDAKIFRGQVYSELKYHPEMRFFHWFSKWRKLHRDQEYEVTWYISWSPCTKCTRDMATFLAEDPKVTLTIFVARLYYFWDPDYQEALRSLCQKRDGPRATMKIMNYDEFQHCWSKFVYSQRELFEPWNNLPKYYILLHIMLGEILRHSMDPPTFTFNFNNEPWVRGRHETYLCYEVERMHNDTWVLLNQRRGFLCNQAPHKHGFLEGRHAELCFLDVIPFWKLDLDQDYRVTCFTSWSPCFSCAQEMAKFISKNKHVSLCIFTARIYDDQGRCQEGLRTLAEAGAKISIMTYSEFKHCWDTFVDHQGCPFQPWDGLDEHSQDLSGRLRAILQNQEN
Method in brief: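 HeLa cells stably expressing Vif and C-terminally eYFP-tagged A3G, seeded overnight at 37 deg C, then exposed to compound by pintool overnight at 37 deg C. Rise in yellow fluorescence (Ex 488/Em 500-530, Acumen) marks blocked Vif-driven A3G degradation.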
With `CC1=CC(C)(C)Nc2ccc(OC(=O)CCN3C(=O)c4ccccc4C3=O)cc21` the Potency was active: 11.2 µM.
For `COc1ccc(C(=O)C(OC(=O)c2ccccc2)c2ccccc2)cc1` (stereo not given), the Potency was inconclusive: 35.5 µM [inhibitor, single point].
In the case of `Nc1ccccc1C(=O)/C=C/c1ccc2c(c1)OCO2`, the Potency is reported as inconclusive: 15.8 µM [inhibitor, single point].
In the case of `Cc1ccnc(N2CCC(C(=O)NCc3ccccc3F)CC2)n1`, the Potency is reported as inconclusive: 3.55 µM [inhibitor, single point].
`N#Cc1ccc(C(=O)Nc2ccc(N3CCN(C(=O)c4ccco4)CC3)cc2)c(F)c1` was tested, and the Potency was inconclusive: 35.5 µM [inhibitor, single point].
With `CCCCCN(CCCCC)c1ccc(/C=C/c2ccnc3ccccc23)cc1` the Potency was inconclusive: 6.31 µM [inhibitor, single point].
With `O=C1c2cccc3c(N4CCCCC4)ccc(c23)C(=O)N1c1ccc(O)cc1` the Potency was active: 7.94 µM.
For `COc1ccc2c(CCNC(N)=S)c[nH]c2c1`, the Potency was “inactive”.
With `CNc1cc(C(=O)O)nc2ccccc12` the Potency was inconclusive: 8.91 µM [inhibitor, partial curve, poor fit].
With `CCN(CC)CCN1C(=O)/C(=C\c2ccc(Cl)c([N+](=O)[O-])c2)SC1=Nc1ccc(OC)cc1` the Potency was inconclusive: 35.5 µM [inhibitor, single point].
`COc1ccccc1CNS(=O)(=O)c1cc(C(=O)Nc2cccc(C(F)(F)F)c2)ccc1F` was tested, and the Potency was “inactive”.
With `CCC1(c2ccccc2)NC(=S)N(c2cccc(C)c2C)N1` (stereo not given) the Potency was “inactive”.
With `O=C(CSc1nc2ccccc2s1)c1cc2ccccc2o1` the Potency was inconclusive: 25.1 µM [inhibitor, single point].
`O=C(N/N=C/C(Br)=C/c1ccccc1)c1cccnc1` was tested, and the Potency was inconclusive: 35.5 µM [inhibitor, single point].
`CCS(=O)(=O)N1N=C(c2ccc(NS(C)(=O)=O)cc2)CC1c1ccccc1` (stereo not given) was tested, and the Potency was inconclusive: 12.6 µM [inhibitor, partial curve].
In the case of `CC1CCN(CCc2nc3cc(NC(=O)COc4ccc(Cl)cc4)ccc3n2C)CC1`, the Potency is reported as inconclusive: 35.5 µM [inhibitor, single point].
For `CC(C)N(c1ccccc1)c1ccc(NC(=O)CCl)cc1`, the Potency was inconclusive: 10 µM [inhibitor, partial curve].
With `COc1ccccc1-n1cc(-c2ccc(C)cc2)[nH]c1=S` the Potency was inconclusive: 10 µM [inhibitor, partial curve].
`CC1=NN(c2nc(N)nc(/C(C#N)=C/c3ccc([N+](=O)[O-])o3)n2)C(C)(C)C1` was tested, and the Potency was inconclusive: 3.16 µM [inhibitor, partial curve, poor fit].
With `COc1cc2c(cc1OC)CN(C(=O)c1ccc([N+](=O)[O-])o1)CC2` the Potency was inconclusive: 35.5 µM [inhibitor, single point].
In the case of `O=C(Nc1c(-c2ccccc2)nc2sccn12)c1ccccc1`, the Potency is reported as “inactive”.
With `CN(C)/N=C/C=C1\CCC/C(=C\c2ccc(F)c(F)c2)C1=O` the Potency was inconclusive: 35.5 µM [inhibitor, single point].
`CN1C/C(=C/c2ccsc2)C(=O)/C(=C/c2ccsc2)C1` was tested, and the Potency was inconclusive: 35.5 µM [inhibitor, single point].
For `COC(=O)C(NC(=O)COc1ccccc1)(Nc1nc2c(s1)CCCC2)C(F)(F)F` (stereo not given), the Potency was “inactive”.
In the case of `COCCCNc1nnc(Cc2ccc(Cl)cc2)c(=O)[nH]1`, the Potency is reported as inconclusive: 0.891 µM [inhibitor, full curve, poor fit].
For `CC(=O)Nc1ccc(Nc2nc3ccccc3nc2NS(=O)(=O)c2ccc(Cl)c([N+](=O)[O-])c2)cc1`, the Potency was inconclusive: 31.6 µM [inhibitor, single point].
`O=C(COc1ccccc1-c1ccccc1)N/N=C/c1cccnc1` was tested, and the Potency was inconclusive: 11.2 µM [inhibitor, partial curve, poor fit].
For `Cc1ccc(Nc2c([N+](=O)[O-])c(=O)oc3ccccc23)cc1`, the Potency was inconclusive: 35.5 µM [inhibitor, single point].
For `CN1/C(=C\C=C2/SC(=S)NC2=O)C(C)(C)c2ccccc21`, the Potency was active: 7.94 µM.
For `CC1(C)CC(=O)C(C2C3=C(CC(C)(C)CC3=O)Oc3c(Br)cc(Br)cc32)=C(O)C1` (stereo not given), the Potency was “inactive”.
With `O=C(Nc1ccc(N2CCCC2)cc1)c1cc(Cl)ccc1Cl` the Potency was inconclusive: 20 µM [inhibitor, single point].
With `Cc1cccc(Cn2ncc(Cl)c(Cl)c2=O)c1` the Potency was inconclusive: 35.5 µM [inhibitor, single point].
With `Cc1ccccc1OCCOC(=O)c1c(-c2ccccc2)noc1C` the Potency was inconclusive: 2.24 µM [inhibitor, partial curve, poor fit].
With `CCOc1ccc2c(c1)C(C)=CC(C)(C)N2S(=O)(=O)c1ccc(F)cc1` the Potency was inconclusive: 6.31 µM [inhibitor, single point].
With `Nc1nc(NCc2ccccc2Cl)c2[nH]cnc2n1` the Potency was “inactive”.
For `COc1ccccc1NC(=O)c1cc(C(=O)Nc2ccccc2OC)n(C)n1`, the Potency was inconclusive: 25.1 µM [inhibitor, single point].
`Cc1c(C(=O)OC2CCCCCC2)[nH]c2c1C(=O)CC(c1ccccc1Cl)C2` (stereo not given) was tested, and the Potency was inconclusive: 1.78 µM [inhibitor, partial curve, poor fit].
With `COc1cc(/C=C/C(=O)OCC(=O)NCc2ccco2)ccc1O` the Potency was inconclusive: 17.8 µM [inhibitor, single point].
For `c1ccc(CN=C2NN=C(c3ccccc3)CS2)cc1`, the Potency was “inactive”.
In the case of `COC(=O)C(=O)C/C(=N/Nc1ncnc2ccccc12)c1ccc(Cl)cc1`, the Potency is reported as inconclusive: 11.2 µM [inhibitor, partial curve, poor fit].
With `CCn1c(Cl)c(C=O)s/c1=N\S(=O)(=O)c1ccccc1` the Potency was inconclusive: 6.31 µM [inhibitor, full curve].
With `COc1cc(OC)cc(C(=O)N[C@H](C(=O)Nc2nc3ccccc3[nH]2)C(C)C)c1` the Potency was inconclusive: 0.631 µM [inhibitor, full curve, poor fit].
For `CCCCN1C(=O)/C(=C/C=C2\Oc3ccccc3N2CC)SC1=S`, the Potency was active: 1.58 µM.
In the case of `CCOC(=O)C(C)Sc1nc2c(cnn2-c2ccc(F)cc2)c(=O)[nH]1` (stereo not given), the Potency is reported as inconclusive: 5.62 µM [inhibitor, single point].
For `CCOc1ccc(CCNC(=O)c2ccc(Cn3c(=O)c4cccn4c4cccnc43)cc2)cc1`, the Potency was inconclusive: 25.1 µM [inhibitor, single point].
`Cc1cc(=O)n2c(C(=O)Nc3ccc(C)c(C)c3)c(C(=O)Nc3ccccc3)sc2n1` was tested, and the Potency was inconclusive: 22.4 µM [inhibitor, single point].
For `O=C1OC(c2ccc(O)cc2)(c2ccc(O)cc2)c2ccccc21`, the Potency was inconclusive: 25.1 µM [inhibitor, single point].
In the case of `COc1ccc(C(=O)NNC2=Nc3cccc4cccc2c34)cc1`, the Potency is reported as inconclusive: 35.5 µM [inhibitor, single point].
`O=C1N(Cc2ccccc2)c2ccc(Cl)cc2C12OCCO2` was tested, and the Potency was inconclusive: 17.8 µM [inhibitor, single point].
In the case of `COc1ccc(NC(=O)c2cc3ccccc3cc2O)cc1`, the Potency is reported as inconclusive: 20 µM [inhibitor, single point].
`O=S1(=O)CCOCCCN1Cc1ccc(F)cc1` was tested, and the Potency was “inactive”.
`CC#CC#Cc1cccc(=O)o1` was tested, and the Potency was “inactive”.
For `O=C(NCCC1CCCCN1S(=O)(=O)c1cccs1)C(=O)Nc1ccc(F)cc1` (stereo not given), the Potency was “inactive”.
`CC(C)(C)NC(=S)N/N=C\c1ccc(-c2ccc([N+](=O)[O-])cc2)o1` was tested, and the Potency was active: 10 µM.
In the case of `C(=C\c1ccccc1)/CSc1nnc(-c2cnccn2)n1Cc1ccco1`, the Potency is reported as inconclusive: 17.8 µM [inhibitor, single point].
In the case of `Cc1cccc(/C=N/NC(=O)c2cc3c(s2)-c2ccccc2CC3)c1`, the Potency is reported as inconclusive: 20 µM [inhibitor, single point].
`O=C(N/N=C/c1ccccn1)c1cc(C2CC2)nc2ccccc12` was tested, and the Potency was inconclusive: 22.4 µM [inhibitor, single point].
With `COc1ccc(C2=NOC(C(=O)NCc3cccs3)C2)cc1OC` (stereo not given) the Potency was inconclusive: 6.31 µM [inhibitor, full curve].
In the case of `CC1=[N+](C)c2c(ccc3cccnc23)C1(C)C`, the Potency is reported as inconclusive: 35.5 µM [inhibitor, single point].
With `COc1ccc(Cl)cc1NC(=O)c1c(C(=O)Nc2cccc(C)c2C)sc2nc(C)cc(=O)n12` the Potency was “inactive”.
For `Cc1c(C)c2ccc(OCC(=O)NC(Cc3c[nH]c4ccc(O)cc34)C(=O)O)c(C)c2oc1=O` (stereo not given), the Potency was “inactive”.
In the case of `COc1ccc(N2CC(NC(=O)c3cccs3)CC2=O)cc1OC` (stereo not given), the Potency is reported as “inactive”.
With `CC(C)CC(=NNC(=O)c1ccncc1)c1cc(Cl)ccc1O` the Potency was inconclusive: 15.8 µM [inhibitor, single point].
`O=S(=O)(O)c1ccc(O)c2cc(Nc3ccccc3)ccc12` was tested, and the Potency was “inactive”.
For `Cc1ccnc(NC(=S)NC(=O)/C=C/c2ccco2)c1`, the Potency was active: 7.94 µM.
`CC(=O)Nc1sc(N/N=C/c2ccc(O)cc2)nc1-c1ccc(C)cc1` was tested, and the Potency was “inactive”.
For `CS(=O)(=O)N1N=C(c2ccccc2)CC1c1ccc2c(c1)OCO2` (stereo not given), the Potency was active: 10 µM.
`CCN(CC)c1ccc2cc(-c3nc4ccccc4n3C)c(=O)oc2c1` was tested, and the Potency was inconclusive: 2.82 µM [inhibitor, full curve, poor fit].
With `O=C1CC(c2ccccc2)Cc2[nH]c(=O)c(-c3nc(-c4ccc(F)cc4)cs3)cc21` (stereo not given) the Potency was inconclusive: 2.82 µM [inhibitor, full curve, poor fit].
For `N#CCCn1cc(/C=N/O)c(-c2ccc(-c3ccccc3)cc2)n1`, the Potency was “inactive”.
